Results as given in the supplement of paper PMC10126150.
Sequences with one replicate were seen in a single cluster, so their values are uncertain.

System: ATP
Assay: switch fluorescence ratio, 500 uM ATP over buffer (Cy3 cluster intensity, sum of 5 cycles each) (fold (ratio)); higher = stronger signal-on switching upon ATP binding; sequences stand for … in TCGTCGGCAGCGTCAGATGTGTATAAGAGACAGTTTTTTTTTTTTTTTTTTTTTTTTT…TC
Conditions: aptamer strand: ATP DNA aptamer (quencher-CACCTGGGGGAGTATTGCGGAGGAAGG + anchor), 100 nM annealed; ATP concentration: 500 uM; one replicate
Outline: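 Values give the fluorescence ratio for each switch-domain sequence, averaged from per-cluster ratios of summed target-cycle to summed buffer-cycle Cy3 intensity. The Cy3-labelled switching-strand clusters sat on a modified Illumina MiSeq flow-cell, were annealed to 100 nM quencher-labelled ATP aptamer, and were imaged in selection buffer, then after 15 min with 500 uM ATP at 22 °C. Five cycles ran with NaOH stripping and re-annealing between them, and clusters outside 100-1000 RFU were excluded.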
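Also: ATP exposure 15 min at 22 °C before imaging.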

Sequence	switch fluorescence ratio
AAAAACCTCA	1.2
AAAAACTT	1.01
AAAAACTTTT	1.08
AAAAAGCCGT	1.03
AAAAAGTGTT	1.05
AAAAATACCA	0.987
AAAAATGAGG	1.02
AAAACCAGAT	0.995
AAAACCGTTG	1
AAAACGAGG	1.01
AAAACGTAGG	0.987
AAAACTCGAG	1.06
AAAAGAGTGG	0.995
AAAAGATAGA	0.972
AAAAGCAGAG	0.994
AAAAGCCGAT	0.973
AAAAGCTCCA	1
AAAAGGACCT	1.66
AAAAGGACGA	1.01
AAAAGGAGCG	1
AAAAGGCCTG	0.95
AAAAGGCGGC	0.967
AAAAGGTCAT	0.999
AAAAGTAACG	1.02
AAAAGTCCAG	1.01
AAAATAACAC	1.08

Sequence	switch fluorescence ratio
AAAATAAGCT	1.04
AAAATCATGA	0.972
AAAATCGGCT	0.947
AAAATGTCTT	0.959
AAAATTCCG	1.05
AAACACAACA	1.04
AAACACTTGA	0.995
AAACAGGGGA	1.01
AAACCACATT	1.03
AAACCATTTC	1.3
AAACCCGTTC	1.04
AAACCGAAAA	2.52
AAACCGTTCG	1.24
AAACCTGCGT	1.03
AAACGAGGAC	0.952
AAACGCGTT	0.979
AAACGCTTAC	2.47
AAACGGACTT	1.22
AAACGGCAGC	1.06
AAACGGCCAA	0.987
AAACGGCCCA	1.04
AAACGGGTAC	1.11
AAACGTAACT	1.3
AAACGTCGGA	1.02
AAACGTCTTA	0.997
AAACGTGCGC	1.03

Sequence	switch fluorescence ratio
AAACGTTAGG	1.03
AAACTCCATA	1.07
AAACTGACGT	1.35
AAAGAAACCT	2.34
AAAGAAATGC	1
AAAGAAATTT	0.985
AAAGAATATA	0.964
AAAGACAACC	1.13
AAAGAGGATA	1.01
AAAGAGTTAA	1.03
AAAGATAGGT	0.971
AAAGATCGCT	1.01
AAAGATGGAA	0.968
AAAGATTGTA	0.941
AAAGCAACGG	1.14
AAAGCAATGA	2.12
AAAGCACTCC	1.13
AAAGCAGAGC	0.948
AAAGCAGGGT	1.4
AAAGCATGTG	1.01
AAAGCCACCA	1.03
AAAGCCATAT	1.06
AAAGCCGGGT	1.1
AAAGCGCCTG	1.03
AAAGCGCGAA	1.02
AAAGCGTTTT	1.04

Sequence	switch fluorescence ratio
AAAGGAAAAA	1.01
AAAGGCCAAG	0.97
AAAGGCCCTT	1
AAAGGCGGTT	0.973
AAAGGCTAAA	0.997
AAAGGCTAAT	0.993
AAAGGCTATG	0.979
AAAGGCTGCA	0.932
AAAGGCTTAA	1.02
AAAGGGGAAT	1.01
AAAGGGGATT	1.01
AAAGGGGCCA	1.04
AAAGGTATTA	0.942
AAAGGTTGAG	1
AAAGTCAAGT	1.02
AAAGTCCACC	1.02
AAAGTTACCT	0.986
AAAGTTGGCA	0.982
AAATAACGTG	0.987
AAATACGCCG	1.02
AAATATAGGG	0.951
AAATATCCCT	1.11
AAATATGTGT	0.985
AAATCAAGGG	1.01
AAATCAATAA	0.99
AAATCACTAC	1.11

Sequence	switch fluorescence ratio
AAATCCGTAC	1.45
AAATCCGTCA	1.06
AAATCCTTA	1.02
AAATCGTAGC	1.03
AAATCGTGCG	1
AAATCGTT	1.03
AAATCGTTAT	1.01
AAATCTGTTA	1.02
AAATCTTGAT	1
AAATCTTGTG	1.01
AAATGAACGT	0.968
AAATGATGTG	1.03
AAATGCCTAG	0.949
AAATGCGCTA	1.02
AAATGCTTTT	0.958
AAATGGAGAA	1.05
AAATGGGA	1.02
AAATGTAGGG	1
AAATGTTAAA	1.01
AAATGTTTCG	1.05
AAATTAAATG	1.02
AAATTAGTAT	0.988
AAATTATTAA	0.988
AAATTCCGGC	0.967
AAATTCCGGT	1.03
AAATTCTCAG	1.04

Sequence	switch fluorescence ratio
AAATTCTGTA	0.983
AAATTGCACG	1.05
AAATTTAGGG	0.984
AAATTTCTAT	1.04
AAATTTGG	0.96
AAATTTGTGA	1
AACAACACTC	1.22
AACAAGAGGC	0.976
AACAAGGGGT	1.02
AACAATAGCA	0.937
AACAATTTGG	0.979
AACACCTCTA	1.04
AACACGACAA	1.19
AACACGATTG	1.06
AACACTAACA	1.1
AACACTCTGT	1
AACAGCTGGT	1.02
AACAGGAGAC	0.993
AACAGGGTC	0.972
AACAGGTAAA	1.03
AACAGTCCCG	0.993
AACATAACAG	1.02
AACATCCTTT	1.03
AACATCGGA	0.972
AACATGAGA	0.982
AACATGGACC	1.05

Sequence	switch fluorescence ratio
AACCACATGG	1.08
AACCAGCACT	1.07
AACCAGGGG	1.31
AACCATACGC	1.35
AACCATGGCT	0.989
AACCCAATT	1.05
AACCCATCCT	1.73
AACCCCCCAA	1.19
AACCCCTGGA	1.03
AACCCGATCT	1.07
AACCCGTAGG	1.07
AACCCTAGCT	1.05
AACCCTCTCG	1.11
AACCCTTGTG	0.971
AACCCTTTCT	1.28
AACCGAAACG	1.13
AACCGATCTA	1.01
AACCGCTCCA	1.2
AACCGGAACA	1.07
AACCGGACAG	1.15
AACCGGGATG	1.05
AACCGGTGAA	0.992
AACCTAGAAA	3.67
AACCTGGTA	1.03
AACCTGTGCA	1.14
AACCTGTGTG	1.03

Sequence	switch fluorescence ratio
AACGAAACCC	1.1
AACGAATCTT	1.03
AACGAGACGT	1.1
AACGAGTTT	0.999
AACGATGGAC	1.09
AACGATGGTC	1.07
AACGATTAGC	0.995
AACGCAAGG	2.42
AACGCAGG	0.999
AACGCAGGCT	0.995
AACGCGGTGT	1.03
AACGGATGTG	0.975
AACGGCGCAC	1.25
AACGGCTGCT	1
AACGGGAATA	1.01
AACGGGGGTA	1.03
AACGGGTGGG	0.991
AACGGGTTTG	1.02
AACGGTAGAG	1.01
